# PubChem BioAssay AID2546 (National Center for Advancing Translational Sciences (NCATS), 2010)
# About 11,000 (3.5%) of roughly 310,000 compounds were called active. The shares of active, inactive and inconclusive entries below differ from those in the screen. Calls come from the whole dose curve; as a rule, active = well fitted inhibition curve with a large enough effect; inconclusive = small, poorly fitted or top-dose-only effect, or effect the other way; inactive = flat fitted curve, though single readings scatter. No potency is given beside an inconclusive call; the fits are too rough.
# Test: VP16 counterscreen qHTS for inhibitors of ROR gamma transcriptional activity;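 note: Gal4-VP16 expression switched on by copper sulfate through the metallothionein promoter; nearly all actives have a fitted effect of over 50% in size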
# Conditions: Drosophila S2 Gal4-VP16 UAS-luciferase, luminescence, 20 h; series mostly up to 53.6 µM
# Potency is the fitted concentration of half-maximal effect; tags give direction and shape of the fitted curve.
row,SMILES,Potency
1,COc1cc(C(=O)O/N=C2\C=CC(=O)C(C)=C2)cc(OC)c1OC,active: 5.62 µM
2,O=C(N/N=C/c1cccs1)c1cccc(S(=O)(=O)Nc2ccc(Cl)cc2)c1,active: 5.62 µM
3,CCN1CCN(Cc2nc3c(c(=O)n(C)c(=O)n3C)n2Cc2ccccc2Cl)CC1,inactive
4,Cc1c(C#N)sc(C(N)=O)c1C,inactive
5,Cc1cc(C(=O)CSc2nc3ccccc3[nH]2)c(C)n1CC1CCCO1 (stereo not given),"inconclusive [inhibitor, single point]"
6,CCOC(=O)c1sc(NC(=O)C2CCCO2)c(C(=O)OCC)c1C (stereo not given),inactive
7,COc1cc(/C=N/NC(=S)NC2CC3C=CC2C3)cc(OC)c1OC (stereo not given),active: 4.47 µM
8,S=C(N/N=C1\CCc2ccccc21)NC1CCCCC1,active: 5.62 µM
9,O=c1c2ccccc2nc(-c2ccc(Cl)cc2Cl)n1O,"inconclusive [inhibitor, single point]"
10,CN1/C(=C\C(=S)NC(=O)c2ccccc2Cl)C(C)(C)c2ccccc21,active: 20 µM
11,CCOC(=O)c1c(-c2ccc(C)o2)csc1NC(=S)NC(=O)c1ccc(F)cc1,active: 3.16 µM
12,O=C(CC1S/C(=N/N=C2CCCCCC2)NC1=O)Nc1ccc(Br)cc1F (stereo not given),active: 5.62 µM
13,O=C(COC(=O)/C(=C/c1cccs1)c1cccs1)NCc1ccccc1Cl,active: 0.631 µM
14,C/C(=N\Nc1ccc(C(=O)O)cc1)c1ccc(Cl)s1,"inconclusive [inhibitor, full curve]"
15,COc1ccccc1-n1cnc2cc(NS(=O)(=O)c3ccc(Br)cc3)ccc21,"inconclusive [inhibitor, partial curve]"
16,CC(=O)/C(=N\Nc1ccccc1Cl)Sc1nnc(-c2ccccc2)n1-c1ccccc1,"inconclusive [inhibitor, single point]"
17,COc1ccc(N2CCC(CNC(=S)Nc3cccc(C)c3)C2)cc1 (stereo not given),active: 5.01 µM
18,COc1ccccc1Oc1c(C)oc2c(CN3CCOCC3)c(O)ccc2c1=O,"inconclusive [inhibitor, full curve, poor fit]"
19,CNS(=O)(=O)c1cc(-c2nnc(Nc3ccc(NC(C)=O)cc3)c3ccccc23)ccc1C,inactive
20,O=C(c1cccs1)n1nc(NCc2ccccc2)nc1NCc1ccccc1,"inconclusive [activator, single point]"
21,C/C(=N\Nc1nc(-c2ccc(C)cc2C)cs1)c1cc2ccccc2oc1=O,"inconclusive [inhibitor, single point]"
22,Cc1ccoc1C(=O)Nc1ccc(CC(=O)O)cc1,"inconclusive [inhibitor, full curve]"
23,Cc1ccc(NC(=S)c2nc3ccccc3[nH]2)c(C)c1,"inconclusive [inhibitor, single point]"
24,O=c1cc(O)nc(-c2ccccc2)s1,"inconclusive [inhibitor, single point]"
25,O=C(/C=C/c1ccccc1)c1ccc2c(c1)OCCCCO2,"inconclusive [inhibitor, single point]"

row,SMILES,Potency
1,O=C(Nc1ncc(Cc2ccccc2Cl)s1)C1=NCCN1,active: 3.16 µM
2,CCOP(=O)(OCC)C(NC(=O)NS(=O)(=O)c1ccc(C)cc1)c1ccccc1 (stereo not given),inactive
3,CCCCN(C)C(=O)c1cc2cc3ccc(OC)cc3nc2s1,"inconclusive [inhibitor, single point]"
4,CCOC(=O)c1c(N)sc(C(=O)Nc2ccccc2F)c1C,inactive
5,Cc1cccc2cc(C#N)c(NCCCNS(=O)(=O)c3ccc(Cl)cc3)nc12,"inconclusive [inhibitor, single point]"
6,O=C(N/N=C\c1cc(Br)cs1)C1COc2ccccc2O1 (stereo not given),"inconclusive [inhibitor, single point]"
7,Oc1ccccc1C1NN=C(c2ccccc2)S1 (stereo not given),"inconclusive [inhibitor, single point]"
8,CCCCOc1ccc(CSc2n[nH]c(C)n2)cc1,"inconclusive [inhibitor, single point]"
9,O=C(NC[C@@H]1CCCCN1)c1cc(OCC(F)(F)F)ccc1OCC(F)(F)F,inactive
10,O=C(N/N=C/c1cc([N+](=O)[O-])ccc1O)c1ccc(COc2ccc3c(c2)CCC3)o1,active: 1.41 µM
11,COc1cc(OC)c2c(-c3ccccc3)cc(=O)oc2c1C(CC(=O)N1CCCC1)c1ccc(N(C)C)cc1 (stereo not given),"inconclusive [inhibitor, single point]"
12,O=C(Oc1cccc2c(O)cccc12)c1ccccc1,"inconclusive [inhibitor, single point]"
13,Cc1ccc(C(=O)N/C(=C\c2ccc(-c3ccc(Br)cc3)o2)C(=O)NC2CCS(=O)(=O)C2)cc1 (stereo not given),"inconclusive [inhibitor, partial curve]"
14,O=C(Nc1cc(S(=O)(=O)N2CCCCC2)ccc1Cl)c1ccccc1NS(=O)(=O)c1ccc(F)cc1,active: 5.62 µM
15,COC(=O)c1cccc(COC(=O)c2ccccc2NC(=O)c2ccco2)c1,inactive
16,Fc1ccc(C(CNC(=S)NC2CCCCC2)N2CCOCC2)cc1 (stereo not given),"inconclusive [inhibitor, single point]"
17,CCCCOC(=O)C1CN(c2ccccc2)N=C1C(C)=O (stereo not given),inactive
18,CC(C)CC(=O)NC(=S)Nc1nc(-c2ccc(Cl)cc2)cs1,"inconclusive [inhibitor, single point]"
19,CCc1nnc(NC(=S)Nc2ccccc2)s1,active: 0.891 µM
20,CCN(CC)c1cccc(OC(=O)c2cccnc2Cl)c1,inactive
21,CCN1CCN(CCNC(=O)c2ccc(/C=C3/Sc4ccccc4N(Cc4ccccc4C)C3=O)cc2)CC1,active: 17.8 µM
22,O=C(NNC(=S)Nc1ccc(Cl)cc1)c1cccs1,"inconclusive [inhibitor, single point]"
23,COc1ccccc1CNC(=S)NCc1ccc(F)cc1,active: 7.94 µM
24,CCOC(=O)c1sc(NC(=O)c2ccc(Cl)s2)cc1C,"inconclusive [activator, full curve]"
25,Cc1ccc(Nc2c(-c3ccccn3)nc3ccc(C)cn23)cc1,"inconclusive [inhibitor, single point]"

row,SMILES,Potency
1,Cc1ccc(N=Nc2c(N)n(-c3ccccc3)[nH]c2=O)cc1,"inconclusive [inhibitor, full curve]"
2,O=C(O)c1cccc(N/N=C/c2ccc(OC(F)(F)F)cc2)c1,"inconclusive [inhibitor, single point]"
3,C=C(CCC(=O)c1ccccc1)C(=O)c1ccccc1,active: 11.2 µM
4,N#CC(c1ccc(F)cc1)c1ccc(C(=O)c2ccc(F)cc2)cc1 (stereo not given),"inconclusive [inhibitor, single point]"
5,COc1cc(NC(=S)NCc2cccs2)cc(OC)c1,active: 11.2 µM
6,COc1ccc(C(=O)NC(=S)NNC(=O)c2c(-c3ccccc3)noc2C)cc1OC,active: 14.1 µM
7,O=C(NC1CC1)c1cc(-c2ccco2)nc2ccccc12,inactive
8,COc1ccc(C(=O)CN2C(=O)COc3ccccc32)cc1,inactive
9,CCOC(=O)C1=C(C)NC(=S)NC1c1ccc(C)s1 (stereo not given),"inconclusive [inhibitor, single point]"
10,O=C(Cn1cnc2ccccc21)Nc1cccc([N+](=O)[O-])c1,"inconclusive [inhibitor, single point]"
11,CN(CC(=O)Nc1ccc(F)cc1)C(=O)Cn1nnc(-c2ccccc2)n1,"inconclusive [inhibitor, single point]"
12,O=C(Nc1ccc(N2CCOCC2)cc1)c1cc2ccccc2o1,"inconclusive [inhibitor, single point]"
13,O=C1c2ccccc2C(=O)c2c(Nc3ccc(CCO)cc3)ccc(O)c21,"inconclusive [inhibitor, partial curve]"
14,O=C(NCCOc1nc(N2CCCCC2)nc(N2CCCCC2)n1)Nc1ccccc1,inactive
15,Cc1cc(C)c(C(=O)COc2cccnc2[N+](=O)[O-])cc1C,"inconclusive [inhibitor, single point]"
16,O=C(NC1=NCCS1)c1ccc(Cl)c(S(=O)(=O)N2CCCCCC2)c1,"inconclusive [activator, single point]"
17,COC(=O)C1=C(C)N(c2ccc(OC)cc2)C(C)=C(C(=O)OC)C1c1ccccc1,inactive
18,COCCN(C(=O)C(F)(F)F)C(C(=O)NC1CCCCC1)c1ccco1 (stereo not given),"inconclusive [inhibitor, partial curve, poor fit]"
19,CCN(CCN(C)C)C(=O)C1CCN(S(=O)(=O)c2c(C)noc2/C=C/c2ccccc2F)CC1,"inconclusive [inhibitor, partial curve]"
20,CC1CCN(C(=O)C2CCN(C(=O)c3cc4sccc4n3Cc3ccc(F)cc3)CC2)CC1,"inconclusive [inhibitor, single point]"
21,CCOC(=O)c1ccc(NC(=O)c2ccc(C)c(S(=O)(=O)N3CCOCC3)c2)cc1,"inconclusive [inhibitor, single point]"
22,C/C=C/c1ccc(OCC(=O)Nc2ccncc2)c(OC)c1,"inconclusive [inhibitor, single point]"
23,C=CCn1c(CCNC(=O)c2cccs2)n[nH]c1=S,"inconclusive [inhibitor, single point]"
24,CCOC(=O)CSc1nnc(Cn2nnc3ccccc32)n1-c1ccc(F)cc1,inactive
25,O=C(Nc1ccc2c(c1)nc1n2CCSC1)c1ccco1,active: 3.16 µM
